Laboratory results as given in the supplement of paper PMC3334620.
Whole data set: some 33,000 sequences, median “E-score (-0.5 to 0.5)” near -0.035, cut for the highest 2% near 0.35. The list shows a part of the results.

These sequences were tested against T1, Pdr3 (UniProt P33200) (assay: PBM E-score (8-mer binding enrichment) (E-score (-0.5 to 0.5)); higher = stronger / more preferred TF binding; most listed sequences are background and not binding sites). Details: protein concentration: 200 nM; construct: GST-full length.
T1 sequence: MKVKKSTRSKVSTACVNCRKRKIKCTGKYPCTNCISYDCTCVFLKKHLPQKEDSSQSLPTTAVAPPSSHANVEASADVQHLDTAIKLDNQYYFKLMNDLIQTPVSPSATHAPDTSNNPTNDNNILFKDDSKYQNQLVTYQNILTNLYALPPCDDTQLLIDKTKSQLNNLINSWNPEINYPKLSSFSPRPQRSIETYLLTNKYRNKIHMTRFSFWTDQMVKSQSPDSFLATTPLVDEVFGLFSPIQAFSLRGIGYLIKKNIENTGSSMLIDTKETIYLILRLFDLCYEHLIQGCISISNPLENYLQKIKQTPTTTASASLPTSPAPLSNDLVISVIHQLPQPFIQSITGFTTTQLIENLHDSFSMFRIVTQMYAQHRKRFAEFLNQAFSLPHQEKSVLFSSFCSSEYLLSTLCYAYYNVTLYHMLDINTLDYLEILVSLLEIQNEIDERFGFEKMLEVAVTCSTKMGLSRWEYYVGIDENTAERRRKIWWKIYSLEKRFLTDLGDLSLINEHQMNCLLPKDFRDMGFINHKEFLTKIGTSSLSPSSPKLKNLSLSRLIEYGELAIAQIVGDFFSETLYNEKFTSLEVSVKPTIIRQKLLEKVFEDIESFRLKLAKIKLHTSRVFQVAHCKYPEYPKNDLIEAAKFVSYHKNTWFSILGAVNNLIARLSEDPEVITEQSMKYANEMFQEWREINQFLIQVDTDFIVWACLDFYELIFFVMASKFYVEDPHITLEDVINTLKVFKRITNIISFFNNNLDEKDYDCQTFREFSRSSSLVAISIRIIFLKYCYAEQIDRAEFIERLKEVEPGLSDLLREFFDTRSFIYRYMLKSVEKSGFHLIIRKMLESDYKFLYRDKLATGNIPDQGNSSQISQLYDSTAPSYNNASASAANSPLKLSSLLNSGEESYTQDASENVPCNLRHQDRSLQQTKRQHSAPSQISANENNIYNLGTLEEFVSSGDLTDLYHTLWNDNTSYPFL
Method in brief: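 Masliner-normalised scans of fluorescent anti-GST signal were the basis for scoring. That signal came from GST-tagged yeast transcription factors applied at about 100-200 nM to double-stranded universal all-10-mer Agilent arrays on fresh or once-stripped slides. Each ungapped eight-base word, pooled with its reverse complement, received an E-score from the Universal PBM Analysis Suite.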

**Q.** Which “PBM E-score” value does the source give for TCCATTAA here?
**A.** The value was 0.0368.

**Q.** How did the “PBM E-score” value turn out when AAAGTGCG was run?
**A.** The value was 0.054.

**Q.** For GTATCCAC, which “PBM E-score” value is on record?
**A.** The value was -0.105.

**Q.** TTAGCAAA was tested. Which “PBM E-score” value did it give?
**A.** Its value is -0.0871.

**Q.** How did the “PBM E-score” value turn out when GACATAGA was run?
**A.** The value was -0.149.

**Q.** How did the “PBM E-score” value turn out when CTCAAAAG was run?
**A.** Its value is -0.026.

**Q.** Which “PBM E-score” value does the source give for CGTATGCC here?
**A.** Its value is -0.0233.

**Q.** For TACCGCCA, which “PBM E-score” value is on record?
**A.** Its value is 0.146.

**Q.** Which “PBM E-score” value does the source give for TGTACAAA here?
**A.** Its value is 0.035.

**Q.** Which “PBM E-score” value does the source give for AGCTCTGC here?
**A.** Its value is -0.217.

**Q.** How did the “PBM E-score” value turn out when AGCTTGCG was run?
**A.** The value was -0.264.

**Q.** Which “PBM E-score” value does the source give for AATGTAGA here?
**A.** Its value is -0.0731.

**Q.** Which “PBM E-score” value does the source give for AGAGTTAG here?
**A.** Its value is -0.0312.

**Q.** How did the “PBM E-score” value turn out when CTGTATAA was run?
**A.** Its value is -0.0666.

**Q.** Which “PBM E-score” value does the source give for ATTCATAG here?
**A.** The value was -0.127.

**Q.** For GCTTGTAC, which “PBM E-score” value is on record?
**A.** The value was 0.00241.

**Q.** Which “PBM E-score” value does the source give for CAATTGGC here?
**A.** The value was -0.0526.

**Q.** How did the “PBM E-score” value turn out when CCGGAGCA was run?
**A.** Its value is 0.401.

**Q.** For ACCGAACA, which “PBM E-score” value is on record?
**A.** Its value is 0.0134.

**Q.** Which “PBM E-score” value does the source give for CGCAGCCA here?
**A.** Its value is -0.0325.

**Q.** With TCACAAGA as the sequence, how does the “PBM E-score” value read?
**A.** The value was -0.0373.

**Q.** How did the “PBM E-score” value turn out when ATGCGTAC was run?
**A.** Its value is -0.141.

**Q.** Which “PBM E-score” value does the source give for GTTTGCGA here?
**A.** Its value is -0.00951.

**Q.** For CGCCGAAC, which “PBM E-score” value is on record?
**A.** The value was 0.265.

**Q.** With CTGATGAA as the sequence, how does the “PBM E-score” value read?
**A.** Its value is -0.179.

**Q.** Which “PBM E-score” value does the source give for AACCTGTC here?
**A.** Its value is -0.153.

**Q.** For ATTCGACC, which “PBM E-score” value is on record?
**A.** The value was -0.0489.

**Q.** For CGCGTTCC, which “PBM E-score” value is on record?
**A.** Its value is 0.259.

**Q.** With TGTAATAA as the sequence, how does the “PBM E-score” value read?
**A.** Its value is -0.209.

**Q.** Which “PBM E-score” value does the source give for GAGTGAGA here?
**A.** The value was -0.0116.

**Q.** ATAGCCAT was tested. Which “PBM E-score” value did it give?
**A.** Its value is -0.00901.

**Q.** With AGTTGGGA as the sequence, how does the “PBM E-score” value read?
**A.** Its value is -0.205.

**Q.** With CTACCAGA as the sequence, how does the “PBM E-score” value read?
**A.** The value was -0.0896.

**Q.** Which “PBM E-score” value does the source give for ACGACACA here?
**A.** The value was -0.146.

**Q.** For ATAGCTCG, which “PBM E-score” value is on record?
**A.** The value was -0.11.

**Q.** How did the “PBM E-score” value turn out when CAAGTAAG was run?
**A.** Its value is -0.231.

**Q.** How did the “PBM E-score” value turn out when AAACGATT was run?
**A.** Its value is -0.0503.

**Q.** Which “PBM E-score” value does the source give for CAGCGAGG here?
**A.** Its value is -0.0395.

**Q.** Which “PBM E-score” value does the source give for GCATCTGA here?
**A.** Its value is -0.143.

**Q.** CCATTTGC was tested. Which “PBM E-score” value did it give?
**A.** Its value is -0.0876.

**Q.** Which “PBM E-score” value does the source give for ACGAACCA here?
**A.** The value was 0.0351.

**Q.** For AGATTCCT, which “PBM E-score” value is on record?
**A.** Its value is -0.088.

**Q.** Which “PBM E-score” value does the source give for GCCTATAC here?
**A.** Its value is -0.0916.

**Q.** Which “PBM E-score” value does the source give for CAAGGTGA here?
**A.** Its value is -0.107.

**Q.** ATAACCGA was tested. Which “PBM E-score” value did it give?
**A.** Its value is -0.0923.

**Q.** GCAGTGCC was tested. Which “PBM E-score” value did it give?
**A.** The value was -0.0598.

**Q.** For ATATGTCA, which “PBM E-score” value is on record?
**A.** The value was 0.0771.

**Q.** GGTCACGA was tested. Which “PBM E-score” value did it give?
**A.** The value was -0.0529.

**Q.** With CGGCAGAA as the sequence, how does the “PBM E-score” value read?
**A.** The value was 0.287.

**Q.** Which “PBM E-score” value does the source give for TGGAACCA here?
**A.** The value was 0.188.

**Q.** For GTTATCCA, which “PBM E-score” value is on record?
**A.** The value was 0.0459.

**Q.** For CCATAGAC, which “PBM E-score” value is on record?
**A.** The value was -0.189.

**Q.** With AATTCATA as the sequence, how does the “PBM E-score” value read?
**A.** The value was 0.0003.

**Q.** How did the “PBM E-score” value turn out when CCAGTTAA was run?
**A.** Its value is 0.112.

**Q.** Which “PBM E-score” value does the source give for CCAAACAG here?
**A.** The value was -0.123.

**Q.** Which “PBM E-score” value does the source give for GAGTAGAC here?
**A.** Its value is -0.125.

**Q.** With CAAAGCTC as the sequence, how does the “PBM E-score” value read?
**A.** The value was -0.16.

**Q.** For GAGCGCTA, which “PBM E-score” value is on record?
**A.** The value was -0.0559.

**Q.** How did the “PBM E-score” value turn out when GCCAGGAA was run?
**A.** The value was -0.0621.

**Q.** For AGTGACAT, which “PBM E-score” value is on record?
**A.** The value was -0.111.

**Q.** Which “PBM E-score” value does the source give for GACCGTCC here?
**A.** Its value is 0.156.

**Q.** For AACACGTA, which “PBM E-score” value is on record?
**A.** The value was -0.0579.

**Q.** How did the “PBM E-score” value turn out when AACGTAGG was run?
**A.** Its value is -0.183.

**Q.** For ACGCACTG, which “PBM E-score” value is on record?
**A.** The value was -0.118.

**Q.** For AAAAGACA, which “PBM E-score” value is on record?
**A.** Its value is 0.035.

**Q.** For AATCATCA, which “PBM E-score” value is on record?
**A.** The value was 0.0158.

**Q.** With CATGGAAA as the sequence, how does the “PBM E-score” value read?
**A.** Its value is 0.0485.

**Q.** For ACAGCAGG, which “PBM E-score” value is on record?
**A.** The value was -0.0446.

**Q.** How did the “PBM E-score” value turn out when GAGTGGGA was run?
**A.** The value was -0.0416.

**Q.** For CCACGCGG, which “PBM E-score” value is on record?
**A.** Its value is 0.108.

**Q.** Which “PBM E-score” value does the source give for CCCATTAA here?
**A.** Its value is -0.107.

**Q.** How did the “PBM E-score” value turn out when GAAGCATA was run?
**A.** Its value is -0.207.

**Q.** Which “PBM E-score” value does the source give for GCTATTTA here?
**A.** Its value is -0.0173.

**Q.** With ATGACGGA as the sequence, how does the “PBM E-score” value read?
**A.** Its value is 0.362.

**Q.** With CTGTTTAC as the sequence, how does the “PBM E-score” value read?
**A.** The value was -0.202.

**Q.** For ACTCTGCC, which “PBM E-score” value is on record?
**A.** The value was -0.19.

**Q.** ACCGAGAA was tested. Which “PBM E-score” value did it give?
**A.** Its value is 0.129.

**Q.** Which “PBM E-score” value does the source give for CTCCTAAC here?
**A.** Its value is -0.266.

**Q.** AAACACCT was tested. Which “PBM E-score” value did it give?
**A.** Its value is -0.139.

**Q.** With TATCGTGA as the sequence, how does the “PBM E-score” value read?
**A.** Its value is -0.0671.

**Q.** For AGGTGTAC, which “PBM E-score” value is on record?
**A.** The value was -0.264.

**Q.** AGTTCCAT was tested. Which “PBM E-score” value did it give?
**A.** The value was 0.114.

**Q.** GAGTACCA was tested. Which “PBM E-score” value did it give?
**A.** Its value is 0.0132.

**Q.** How did the “PBM E-score” value turn out when GCGCTGAA was run?
**A.** The value was -0.0182.

**Q.** Which “PBM E-score” value does the source give for AAGAAAAA here?
**A.** Its value is -0.0818.

**Q.** ATGACCTG was tested. Which “PBM E-score” value did it give?
**A.** Its value is -0.119.
